The antibiotic and cytotoxicity screens of Wong et al. (2023)
This is one part of the list.

Experiments:
HSkMC = human skeletal muscle cells; assay: cytotoxicity call (relative viability < 0.9); settings: 10 µM
HepG2 = assay: cytotoxicity call (relative viability < 0.9); settings: 10 µM
S. aureus RN4220 = assay: growth inhibition call (relative growth <= 0.2); settings: 50 µM

Row | SMILES | cytotoxicity call (HSkMC) | cytotoxicity call (HepG2) | growth inhibition call (S. aureus RN4220)
1 | COc1ccc(S(=O)(=O)Nc2ccc3c(c2)C(=O)N([C@H](C)CO)C[C@@H](C)[C@H](CN(C)C(=O)Nc2ccccc2)OCCCC[C@H](C)O3)cc1 | inactive | inactive | inactive
2 | CSc1nn(C)c2cnn(C)c(=O)c12 | inactive | inactive | inactive
3 | Cc1cc(C(=O)Nc2cccc3c2O[C@H](CN(C)Cc2ccncc2)[C@H](C)CN([C@@H](C)CO)C3=O)n(C)n1 | inactive | inactive | inactive
4 | C[C@@H]1CN([C@@H](C)CO)C(=O)c2cc(-c3cccc(C#N)c3)cnc2O[C@@H]1CN(C)C(=O)C1CCOCC1 | inactive | inactive | inactive
5 | COCC#Cc1ccc2c(c1)O[C@H](CN(C)S(=O)(=O)c1ccc(F)cc1)[C@@H](C)CN([C@H](C)CO)S2(=O)=O | inactive | inactive | inactive
6 | Cc1ccc(C(C)C)c(O)c1 | inactive | inactive | inactive
7 | COc1ccc(S(=O)(=O)Nc2ccc3c(c2)C(=O)N([C@@H](C)CO)C[C@H](C)[C@H](CN(C)S(=O)(=O)c2cn(C)cn2)OCCCC[C@@H](C)O3)cc1 | inactive | inactive | inactive
8 | C[C@@H]1CCCCO[C@@H](CN(C)Cc2ccc(C(F)(F)F)cc2)[C@H](C)CN([C@@H](C)CO)C(=O)c2cc(NS(=O)(=O)c3ccccc3)ccc2O1 | inactive | active | inactive
9 | CCCN(C)C[C@@H]1OCCCC[C@@H](C)Oc2ccc(NC(=O)Nc3ccc(C(F)(F)F)cc3)cc2C(=O)N([C@H](C)CO)C[C@@H]1C | inactive | active | inactive
10 | C[C@@H]1CCCCO[C@H](CN(C)Cc2ccc(C(F)(F)F)cc2)[C@H](C)CN([C@@H](C)CO)C(=O)c2cc(NC(=O)c3ccncc3)ccc2O1 | inactive | inactive | inactive
11 | O=C(Nc1cccc2cccnc12)[C@@H]1[C@H](c2ccc(Br)cc2)CC(=O)N1C(=O)OCc1ccccc1 | inactive | inactive | inactive
12 | CC(C)CC#Cc1cnc2c(c1)C(=O)N([C@@H](C)CO)C[C@H](C)[C@@H](CN(C)C(=O)CN1CCOCC1)O2 | inactive | inactive | inactive
13 | CCNC(=O)CC[C@H](N)C(=O)O | inactive | inactive | inactive
14 | CC(=O)N1CCN(c2c(C)cnc3c2c(=O)n(CC(N)=O)c(=O)n3C)CC1 | inactive | inactive | inactive
15 | Cc1noc(C)c1NC(=O)N(C)C[C@H]1OCCCC[C@@H](C)Oc2ccc(NS(=O)(=O)c3ccccc3)cc2C(=O)N([C@H](C)CO)C[C@H]1C | inactive | inactive | inactive
16 | COc1ccc(S(=O)(=O)Nc2ccc3c(c2)CC(=O)N([C@H](C)CO)C[C@@H](C)[C@@H](CN(C)Cc2ccc(C(=O)O)cc2)O3)cc1 | inactive | inactive | inactive
17 | CCCNC(=O)N[C@H]1C=C[C@H](CC(=O)N2CCN(C)CC2)O[C@H]1CO | inactive | inactive | inactive
18 | C[C@H]1CN([C@@H](C)CO)C(=O)c2cc(NC(=O)Nc3ccc(F)cc3)ccc2O[C@@H]1CN(C)C(=O)Nc1ccc(C(F)(F)F)cc1 | inactive | inactive | inactive
19 | C[C@@H]1CN([C@@H](C)CO)C(=O)c2cc(NS(=O)(=O)c3ccc(Cl)cc3)ccc2O[C@@H](C)CCCCO[C@H]1CN(C)Cc1ccccc1 | inactive | inactive | inactive
20 | COC(=O)c1c(CC[C@@H](CO)NC(=O)NCCn2cc(C3(O)CCCC3)nn2)oc(C(C)=O)c1C(=O)OC | inactive | inactive | inactive
21 | C[C@@H]1CN([C@H](C)CO)C(=O)c2cc(NS(=O)(=O)c3cccs3)ccc2O[C@@H](C)CCCCO[C@@H]1CN(C)Cc1ccc(C(F)(F)F)cc1 | inactive | inactive | inactive
22 | Cc1noc(C)c1NC(=O)N(C)C[C@H]1Oc2ccc(NC(=O)Nc3ccc(C(F)(F)F)cc3)cc2C(=O)N([C@@H](C)CO)C[C@@H]1C | inactive | inactive | inactive
23 | Cl.Cl.N=C(N)N | inactive | inactive | inactive
24 | Cc1noc(C)c1S(=O)(=O)N(C)C[C@@H]1OCCCC[C@@H](C)Oc2ccc(NC(=O)Nc3cccc4ccccc34)cc2C(=O)N([C@H](C)CO)C[C@@H]1C | inactive | inactive | inactive
25 | C[C@@H]1O[C@@H](O[C@H]2[C@H](Oc3cc(O)c(C(=O)CCc4ccc(O)cc4)c(O)c3)O[C@H](CO)[C@@H](O)[C@@H]2O)[C@H](O)[C@H](O)[C@H]1O | inactive | inactive | inactive
26 | COc1ccc(NC(=O)Nc2ccc3c(c2)CC(=O)N([C@H](C)CO)C[C@H](C)[C@@H](CN(C)Cc2ccc(C(=O)Nc4ccccc4N)cc2)O3)cc1 | inactive | inactive | inactive
27 | CN(C)CCCNC(=O)[C@@H]1[C@@H](CO)[C@@H]2Cn3c(ccc(-c4cccc(C(=O)N(C)C)c4)c3=O)[C@H]1N2 | inactive | inactive | inactive

Row | SMILES | cytotoxicity call (HSkMC) | cytotoxicity call (HepG2) | growth inhibition call (S. aureus RN4220)
28 | O=C(C[C@H]1CC[C@H]2[C@@H](COC[C@H](O)CN2S(=O)(=O)c2ccccc2)O1)NCc1ccc2c(c1)OCO2 | inactive | inactive | inactive
29 | COc1ccc(S(=O)(=O)N(CC(=O)O)c2ccc(N(CC(=O)O)S(=O)(=O)c3ccc(OC)cc3)c3ccccc23)cc1 | inactive | inactive | inactive
30 | C[C@H](CO)N1C[C@H](C)[C@@H](CN(C)C(=O)Nc2cccc3ccccc23)Oc2c(NS(=O)(=O)c3ccccc3)cccc2C1=O | inactive | inactive | inactive
31 | CC1(C(=O)[O-])CCC2(C)CCC3(C)C(=CC(=O)C4C5(C)CCC(OC(=O)CCC(=O)[O-])C(C)(C)C5CCC43C)C2C1.[Na+].[Na+] (configuration not stated) | inactive | inactive | inactive
32 | Cc1ccc(S(=O)(=O)N(C)C[C@H]2Oc3c(NC(=O)NC(C)C)cccc3C(=O)N([C@@H](C)CO)C[C@@H]2C)cc1 | inactive | inactive | inactive
33 | COc1ccc(CNC(=O)c2cc3c(c(-c4cccc(-c5cccc(C#N)c5)c4)n2)[C@H](CCO)N([S@@](=O)C(C)(C)C)C3)cc1 | inactive | inactive | inactive
34 | C[C@H](CO)N1C[C@H](C)[C@H](CN(C)Cc2ccncc2)Oc2ccc(NS(=O)(=O)c3cccs3)cc2C1=O | inactive | inactive | inactive
35 | CCNC(=O)C=Cc1cccc(Br)c1 | inactive | active | inactive
36 | COc1ccc(NC(=O)Nc2ccc3c(c2)C(=O)N([C@@H](C)CO)C[C@@H](C)[C@H](CN(C)C(=O)Nc2ccc4c(c2)OCO4)OCCCC[C@@H](C)O3)cc1 | inactive | inactive | inactive
37 | C[C@@H]1CN([C@H](C)CO)C(=O)c2cc(NC(=O)Nc3ccc4c(c3)OCO4)ccc2O[C@@H](C)CCCCO[C@H]1CN(C)S(=O)(=O)c1cccs1 | inactive | inactive | inactive
38 | C[C@@H]1CN([C@@H](C)CO)C(=O)Cc2cc(NS(=O)(=O)c3cccs3)ccc2O[C@H]1CN(C)Cc1ccc(Cl)c(Cl)c1 | inactive | inactive | inactive
39 | C[C@@H]1CN([C@@H](C)CO)C(=O)c2cc(N(C)C)ccc2O[C@@H](C)CCCCO[C@@H]1CN(C)C(=O)CCCN(C)C | inactive | inactive | inactive
40 | C[C@@H]1CCCCO[C@@H](CN(C)Cc2ccc3c(c2)OCO3)[C@H](C)CN([C@H](C)CO)C(=O)c2cc(NC(=O)CCC(F)(F)F)ccc2O1 | inactive | inactive | inactive
41 | Cc1ccccc1S(=O)(=O)N(C)C[C@@H]1Oc2ccc(NC(=O)Nc3cc(Cl)cc(Cl)c3)cc2CC(=O)N([C@@H](C)CO)C[C@@H]1C | active | inactive | inactive
42 | C[C@@H]1CN([C@H](C)CO)C(=O)c2c(c3ccccc3n2C)-c2ccccc2CO[C@H]1CN(C)Cc1cccc(O)c1 | inactive | inactive | inactive
43 | C[C@@H]1CN([C@H](C)CO)C(=O)c2cc(NC(=O)CCCN(C)C)ccc2O[C@@H]1CN(C)Cc1ccc2c(c1)OCO2 | inactive | inactive | inactive
44 | Cc1noc(C)c1NC(=O)N(C)C[C@@H]1Oc2c(NS(C)(=O)=O)cccc2C(=O)N([C@@H](C)CO)C[C@@H]1C | inactive | inactive | inactive
45 | C[C@@H]1CN([C@H](C)CO)C(=O)CCCn2nncc2CO[C@@H]1CN(C)C(=O)Nc1ccccc1C(F)(F)F | inactive | inactive | inactive
46 | O=C(NCC(F)(F)F)[C@@H]1c2ccccc2C(=O)N(Cc2cc(F)cc(C(F)(F)F)c2)[C@H]1c1ccc(CO)cc1 | inactive | inactive | inactive
47 | C[C@H]1CN([C@@H](C)CO)C(=O)c2cc(NC(=O)CCN3CCOCC3)ccc2O[C@@H]1CN(C)C(=O)Nc1ccccc1 | inactive | inactive | inactive
48 | CN1CCN(C(=O)C[C@@H]2CC[C@H]3[C@@H](COC[C@@H](O)CN3Cc3ccc(Oc4ccccc4)cc3)O2)CC1 | inactive | inactive | inactive
49 | C[C@@H]1CN([C@H](C)CO)C(=O)c2cccc(NC(=O)CCCCCC(=O)Nc3ccccc3N)c2O[C@H]1CN(C)C(=O)Nc1ccc(F)cc1 | inactive | inactive | inactive
50 | COc1ccc(CN(C)C[C@H]2OCCCC[C@@H](C)Oc3ccc(NS(=O)(=O)c4cccs4)cc3C(=O)N([C@H](C)CO)C[C@@H]2C)cc1 | inactive | inactive | inactive
51 | CN1C(CC(=O)c2ccccc2)CCCC1CC(O)c1ccccc1.Cl (configuration not stated) | inactive | inactive | inactive
52 | C[C@@H]1CN([C@H](C)CO)C(=O)c2cccc(NS(=O)(=O)c3ccc(F)cc3)c2O[C@H]1CN(C)Cc1ccc(-c2ccccc2)cc1 | inactive | active | inactive
53 | CC(C)CN1C[C@@H]2CCNCC[C@H]2S1(=O)=O | inactive | inactive | inactive
54 | C[C@@H]1CN([C@H](C)CO)S(=O)(=O)c2ccc(C#Cc3ccccc3)cc2O[C@H]1CN(C)S(C)(=O)=O | inactive | inactive | inactive
